Test results from PubChem BioAssay AID360 (National Center for Advancing Translational Sciences (NCATS), 2006).
The campaign covered roughly 48,000 compounds. About 550 (1.1%) were called active. Inconclusive results (about 4%) are left out. Rule as the data show it: active = potency below about 15 µM; inconclusive = mostly about 16 µM to 33 µM; inactive = weaker than that. Some of the results follow.

Target: Lysosomal acid glucosylceramidase (Homo sapiens) (UniProt P04062)
Assay: Glucocerebrosidase;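 also: the screen sought inhibitors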
Details: purified enzyme, resorufin glucoside fluorescence (screen aimed at inhibitors), 20 min
Outline: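 Normal human glucocerebrosidase (0.2 nM final) was assayed with resorufin β-D-glucopyranoside (30 uM final) in 50mM citric acid/KH2PO4, 10mM sodium taurocholate, 0.01% tween-20, pH 5.9. Compounds were titrated; fluorescence (Ex 548, Em 600) read after 20 min at RT.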
Potency is read from the fitted curve at half-maximal effect.

Chain of UniProt P04062 (P04062 whole entry, looked up): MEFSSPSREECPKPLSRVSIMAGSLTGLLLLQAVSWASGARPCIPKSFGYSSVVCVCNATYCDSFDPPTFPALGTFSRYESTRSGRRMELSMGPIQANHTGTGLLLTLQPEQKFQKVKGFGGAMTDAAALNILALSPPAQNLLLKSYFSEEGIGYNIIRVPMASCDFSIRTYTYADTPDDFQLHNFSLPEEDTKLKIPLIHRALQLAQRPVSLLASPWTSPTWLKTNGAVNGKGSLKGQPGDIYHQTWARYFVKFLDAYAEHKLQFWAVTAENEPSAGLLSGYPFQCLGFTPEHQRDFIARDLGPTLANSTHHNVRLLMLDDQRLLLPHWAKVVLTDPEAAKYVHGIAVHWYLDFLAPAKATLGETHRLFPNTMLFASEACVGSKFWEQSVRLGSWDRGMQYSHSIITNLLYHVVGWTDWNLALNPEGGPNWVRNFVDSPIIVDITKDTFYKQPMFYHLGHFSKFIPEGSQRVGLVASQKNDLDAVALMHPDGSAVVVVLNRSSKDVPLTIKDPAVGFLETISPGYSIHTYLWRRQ

Row | Structure (SMILES) | Potency
1 | NC12CN3CN(CN(C3)C1)C2 (tested in a mixture with another compound) | inactive: > 76.9 µM
2 | O=C(c1cc2c(s1)CCCC2)N1CCC2(CC1)OCCO2 | inactive: > 76.9 µM
3 | COC(=O)c1c(C)[nH]c(C(=O)C(Cc2ccccc2)N(C)C)c1C (configuration not stated) | inactive: > 15.4 µM
4 | Cc1ccc(-n2nc(C)c3c2NC(=O)CSC3c2ccc3c(c2)OCO3)cc1 (configuration not stated) | inactive: > 76.9 µM
5 | CN(C)CP(=O)(O)CN(C)C=O | inactive: > 76.9 µM
6 | CON(C)C(=O)Nc1ccc(Cl)cc1 | inactive: > 76.9 µM
7 | Cc1ccc(S(=O)(=O)Cc2ccc(C(=O)N3CCC4(CC3)OCCO4)o2)cc1 | inactive: > 76.9 µM
8 | CCCCOC(=O)C1=C(N)OC2=C(C(=O)CCC2)[C@]12C(=O)N(C)c1ccccc12 | inactive: > 76.9 µM
9 | CN1CCN(C(=O)COc2ccc(C(C)(C)C)cc2Br)CC1 | inactive: > 76.9 µM
10 | Cc1cc(Cl)ccc1OC(C)C(=O)O (configuration not stated) | inactive: > 76.9 µM
11 | O=C(CSc1ccccc1)N1CCC2(CC1)OCCO2 | inactive: > 76.9 µM
12 | CCSc1cc(C2C(C#N)=C(N)Oc3n[nH]c(C)c32)c(C)o1 (configuration not stated) | inactive: > 76.9 µM
13 | O=C1NC(=O)C(CCc2ccncc2)(C2CCCCC2)C(=O)N1 | inactive: > 76.9 µM
14 | COC(=O)CC1=C(C(=O)OC)C2(C(=O)Nc3c(C)cccc32)C(C#N)=C(N)O1 (configuration not stated) | inactive: > 76.9 µM
15 | COC(=O)C1=C(N)Oc2c(c(=O)oc3ccccc23)[C@]12C(=O)N(C)c1ccccc12 | inactive: > 76.9 µM
16 | CCn1c(C(=O)N2CCC(C(=O)N3CCC4(CC3)OCCO4)CC2)cc2sccc21 | inactive: > 76.9 µM
17 | CC(=O)N(C1=NCCCS1)c1ccccc1F | inactive: > 76.9 µM
18 | C=CCn1c(O)c(C(C)=NCCN2CCOCC2)c(=O)[nH]c1=O | inactive: > 76.9 µM
19 | OC1(c2cccnc2)CC2CCC(C1)N2Cc1nnnn1Cc1ccccc1 (configuration not stated) | inactive: > 76.9 µM
20 | CN(C(=O)c1ccco1)C1(c2ccccc2Cl)CCCCC1=O (configuration not stated) | inactive: > 76.9 µM
21 | Cc1ccccc1NC1=NCC(C)S1 (configuration not stated) | inactive: > 76.9 µM
22 | C[C@]12CCC(=O)C=C1CCC1C2CC[C@@]2(C)C1CC[C@@]2(O)CC#N (some centres not stated) | inactive: > 76.9 µM
23 | CCN1CCN(C(=O)COc2cc(=O)n(CC)c3ccccc23)CC1 | inactive: > 76.9 µM

Row | Structure (SMILES) | Potency
24 | CCCS(=O)(=O)N1CCCC(C(=O)N2CCC3(CC2)OCCO3)C1 (configuration not stated) | inactive: > 76.9 µM
25 | Cc1ccc(O)c(CN2CCN(c3ccccc3)CC2)c1 | inactive: > 76.9 µM
26 | CCCNC(=O)N1C2CCC1CC(O)(c1cccnc1)C2 (configuration not stated) | inactive: > 76.9 µM
27 | Cc1nc2ccc(Cl)cn2c1P(=S)(N1CCOCC1)N1CCOCC1 | inactive: > 76.9 µM
28 | Cn1ccnc1P(=S)(c1nccn1C)c1nccn1C | inactive: > 76.9 µM
29 | COc1cccc(N2C(=O)NC(=O)C3(Cc4cc(C)ccc4N(C)C3)C2=O)c1 (configuration not stated) | inactive: > 76.9 µM
30 | CCN1CCN(Cc2cc(Br)cc(OC)c2O)CC1 | inactive: > 76.9 µM
31 | O=c1[nH]c(=O)n(Cc2ccccc2)c(O)c1C=Nc1ccc(CN2CCOCC2)cc1 | inactive: > 76.9 µM
32 | Fc1ccccc1N1CCN(Cc2c(F)cccc2F)CC1 | inactive: > 76.9 µM
33 | CCCNC(=O)c1c(N)n(CC2CCCO2)c2nc3ccccc3nc12 (configuration not stated) | inactive
34 | CC1=CC(C)C(COC(N)=O)(COC(N)=O)C(C)C1 (configuration not stated) | inactive: > 76.9 µM
35 | CC(=NCCCn1ccnc1)c1c(O)n(C)c(=O)n(C)c1=O | inactive: > 76.9 µM
36 | Cc1cccc(-n2c(O)c(C=NCCCN3CCOCC3)c(=O)[nH]c2=O)c1C | inactive: > 76.9 µM
37 | C=CCn1c(O)c(C(C)=NCc2cccnc2)c(=O)[nH]c1=O | inactive: > 76.9 µM
38 | O=C1NCN(c2ccccc2)C12CCNCC2 | inactive: > 76.9 µM
39 | COc1ccc(-n2c(O)c(C(C)=NCCN3CCNCC3)c(=O)[nH]c2=O)cc1 | inactive: > 76.9 µM
40 | COc1cc(/C=N/n2cnnc2)ccc1OC(=O)N(C)C | inactive: > 76.9 µM
41 | CCc1cccc2c(C#N)cn(CC(=O)N3CCOCC3)c12 | inactive: > 76.9 µM
42 | CCN(CC)C(=O)c1ccc(NC(=O)CSc2nnnn2-c2cc(OC)ccc2OC)cc1 | inactive: > 76.9 µM
43 | CCn1c(C)c(C(=O)O)c2cc(OC)ccc21 | inactive: > 76.9 µM
44 | O=C1NC(=O)C2(Cc3c(nc4ccccn4c3=O)N3CCCCCC32)C(=O)N1Cc1ccccc1 (configuration not stated) | inactive: > 76.9 µM
45 | CCCCC12CNCC(C)(CNC1)C2=O | inactive: > 76.9 µM
46 | CC1OC(NCCc2ccccc2)C(O)C(O)C1O (configuration not stated) | inactive: > 76.9 µM

Row | Structure (SMILES) | Potency
47 | CCN1c2nc3c(C)cccn3c(=O)c2CC2(C(=O)N(C)C(=O)N(C)C2=O)C1C (configuration not stated) | inactive: > 76.9 µM
48 | O=P(/C(=N/O)N1CCOCC1)(N1CCOCC1)N1CCOCC1 | inactive: > 76.9 µM
49 | CN(C)C(=O)CSc1nnc([C@@H](N)Cc2ccccc2)o1 | inactive: > 76.9 µM
50 | OC(COCc1ccc(Cl)cc1)CN1CC=C(c2ccccc2)CC1 (configuration not stated) | inactive: > 76.9 µM
51 | CCN1CCN(Cc2ccc(OC(F)(F)F)cc2)CC1 | inactive: > 76.9 µM
52 | CCCCCCn1c(O)c(C=NC2CCCCC2N)c(=O)[nH]c1=O (configuration not stated) | inactive: > 76.9 µM
53 | O=C(CN1CCN(Cc2ccc(Cl)cc2)C1=O)N1CCC2(CC1)OCCO2 | inactive: > 76.9 µM
54 | C=Cn1ccnc1P(=S)(c1nccn1C=C)C1CCCCC1 | inactive: > 76.9 µM
55 | CCCNc1oc(-c2cccc3ccccc23)nc1C#N | inactive: > 76.9 µM
56 | CC(=O)N1CN2CN(C(C)=O)CC(C(=O)c3ccc(Br)cc3)(C2)C1 | inactive: > 76.9 µM
57 | COc1ccccc1N1CCN(C(CNC(=O)Oc2ccccc2)c2cccnc2)CC1 (configuration not stated) | inactive: > 76.9 µM
58 | Cc1ccc(N(C)C(=O)Oc2cccc3cccnc23)cc1 | inactive: > 76.9 µM
59 | C=CCN1C(=O)C2(C(C(=O)OCC)=C(N)Oc3c2c(=O)oc2ccccc32)c2ccccc21 (configuration not stated) | inactive: > 76.9 µM
60 | Cc1nc2c(-c3ccccc3)c(C)nn2c(C)c1CCC(=O)N1CCC2(CC1)OCCO2 | inactive: > 76.9 µM
61 | CCC(=Nc1ccc(OC)cc1OC)c1c(O)n(C2CCCCC2)c(=O)[nH]c1=O | inactive: > 76.9 µM
62 | N=C(N)c1c(O)n(C2CCCCC2)c(=O)n(C2CCCCC2)c1=O | inactive: > 76.9 µM
63 | O=c1c2ccccc2nc(-c2ccco2)n1-c1nccs1 | inactive: > 76.9 µM
64 | N#Cc1ccccc1Cn1cc(C(=O)c2ccco2)c2ccccc21 | inactive: > 76.9 µM
65 | CC(C)OC12Oc3ccccc3C=C1N1CCC2CC1 (configuration not stated) | inactive: > 76.9 µM
66 | O=C(c1ccc2c(=O)n(Cc3ccc4c(c3)OCO4)c(=S)[nH]c2c1)N1CCC2(CC1)OCCO2 | inactive: > 76.9 µM
67 | CC(Oc1ccc(-c2ccccc2)cc1)C(=O)O (configuration not stated) | inactive: > 76.9 µM
68 | Cc1ccc2c(c1)CC1(CN2C)C(=O)NC(=O)N(c2cc(C)ccc2C)C1=O (configuration not stated) | inactive: > 76.9 µM
69 | CCn1c(=O)cc(OCC(=O)N2CCN(Cc3ccc4c(c3)OCO4)CC2)c2ccccc21 | inactive: > 76.9 µM

Row | Structure (SMILES) | Potency
70 | O=c1[nH]c2c(c(=O)n1C1CCCCC1)CCC2 | inactive: > 76.9 µM
71 | CN1C(=O)C(C2(C#N)CCCCC2)C(=O)N(C)C1=O | inactive: > 76.9 µM
72 | CCN(CC)CCCN=Cc1c(O)n(CCc2ccc(F)cc2)c(=O)[nH]c1=O | inactive: > 76.9 µM
73 | Cc1ccccc1C1=NCC(=O)N(CC(=O)NCc2ccco2)c2sc3c(c21)CCCC3 | inactive: > 76.9 µM
74 | CC(C)(C)P(=O)(c1ccncc1)N1CCCC1 (configuration not stated) | inactive: > 76.9 µM
75 | O=c1[nH]c(=O)n(Cc2ccco2)c(O)c1C=NC1CC1 | inactive: > 76.9 µM
76 | CC(N)C(=O)c1ccco1 (configuration not stated) | inactive: > 76.9 µM
77 | CCC(=NCCCN(C)C)c1c(O)n(-c2ccc(OC)cc2)c(=O)[nH]c1=O | inactive: > 76.9 µM
78 | O=c1cc(C2CCNCC2)[nH][nH]1 | inactive: > 76.9 µM
79 | CCC(=Nc1ccc2c(c1)CCC2)c1c(O)n(C)c(=O)n(C)c1=O | inactive: > 76.9 µM
80 | Cc1ccccc1-n1c(O)c(C=NCCN2CCOCC2)c(=O)[nH]c1=O | inactive: > 76.9 µM
81 | O=P1(Nc2ccc(F)cc2)COc2ccccc2OC1 | inactive: > 76.9 µM
82 | Cc1cc(C)n2nc(C)[n+](C)c2n1 | inactive: > 76.9 µM
83 | CCN(CC)CCCN=Cc1c(O)n(-c2cccc(C)c2C)c(=O)[nH]c1=O | inactive: > 76.9 µM
84 | Cc1occc1C(=O)N1CCC2(CC1)OCCO2 | inactive: > 76.9 µM
85 | O=c1cccc2n1CC1CC2CN(c2ncnc3c2cnn3-c2ccc(Cl)cc2)C1 (configuration not stated) | inactive: > 76.9 µM
86 | O=C1C2CCCN2C(c2cccs2)N1c1ccccn1 (configuration not stated) | inactive: > 76.9 µM
87 | Cc1cc([P+](=O)O)c(C)n1-c1ccc(Br)cc1 | inactive: > 76.9 µM
88 | COC(=NC1CCCC1)C(O)c1c[nH]c2ccccc12 (configuration not stated) | inactive: > 76.9 µM
89 | CN(C=O)CP(=O)(O)CN(C)C=O | inactive: > 76.9 µM
90 | COc1ccc(CN2C(=O)CC(=O)NC2=O)cc1 | inactive: > 76.9 µM
91 | Cc1sc2ncn(CC(=O)NCC(=O)N3CCC4(CC3)OCCO4)c(=O)c2c1C | inactive
92 | CCCn1nc2ccccc2c1P(=O)(N1CCOCC1)N1CCOCC1 | inactive: > 76.9 µM
